According to patent US20240261263A1, “COMPOUNDS AND METHODS TO SENSITIZE CANCER CELLS TO TYROSINE KINASE INHIBITORS” (Da Zen Theranostics, Inc., priority 2016, published 2024):
Where two headings read alike, the source gives them in different places. Blank lines part the entries; values can stand above or below the molecule they belong to.

How the values were obtained:
95D (Met) = experiment: Crystal Violet cell proliferation assay, 95D; assay type: cell-based, human; settings: single agent, 72 h, mean ± SEM
H1975 = experiment: Crystal Violet cell proliferation assay, H1975; settings: Homo sapiens, NCI-H1975, 72 h, read-out: IC50 H1975 Mean (95% CI), drug alone, 72 h
95C (Non-Met) = experiment: Crystal Violet cell proliferation assay, 95C; assay type: cell-based, human; settings: Homo sapiens; single agent, 72 h, mean ± SEM
YTMLC = experiment: Crystal Violet cell proliferation assay, YTMLC; assay type: cell-based, human; settings: single agent, 72 h, mean ± SEM
H446 = experiment: Crystal Violet cell proliferation assay, H446; assay type: cell-based, human; settings: single agent, 72 h, mean ± SEM, read-out: IC50 SCLC H446
A549 parental = experiment: Crystal Violet cell proliferation assay, A549; settings: Homo sapiens, A549, 72 h, read-out: IC50 A549 parental, single agent, 72 h, mean ± SEM
[1] = system: A549/DDP (Cisplatin Resistant); experiment: Crystal Violet cell proliferation assay, A549/DDP; settings: Homo sapiens, A549/DDP, 72 h, read-out: IC50 A549/DDP (Cisplatin Resistant), single agent, 72 h, mean ± SEM

Molecule: N.N.[Cl][Pt][Cl] [CIS, Cisplatin]
- IC50 (95D (Met)): > 100 µM

- IC50 (H1975): 4.8 µM
Molecule: C#Cc1cccc(Nc2ncnc3cc4c(cc23)OCCOCCOCCO4)c1 [Icotinib]

- IC50 (H446; Homo sapiens, NCI-H446): 4.3 ± 1.3 µM
- IC50 [1]: 5.3 ± 1.1 µM
Molecule: CCC(C)(C)C(=O)O[C@H]1C[C@@H](C)C=C2C=C[C@H](C)[C@H](CC[C@@H]3C[C@@H](O)CC(=O)O3)[C@H]21 [SIM, Simvastatin]
- IC50 (95D (Met); Homo sapiens): 1.7 ± 1 µM
- IC50 (95C (Non-Met)): 2 ± 1.2 µM
- IC50 (YTMLC; Homo sapiens): 10.6 ± 1 µM
- IC50 (A549 parental): 4.2 ± 1.2 µM

- IC50 (H446): 23.4 ± 1 µM
Molecule: DZ1-Cisplatin ester
- IC50 (YTMLC): 2.2 ± 1 µM
